{"source": "the supplement of paper PMC4604168 (melanoma cell lines)", "note": "The list shows a part of the results. Repeats are few or missing, and single values can be far off.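 Note: cells treated in 1,536-well plates, then fixed and DAPI-stained, with nuclei counted from automated high-throughput microscope images.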", "data": [{"system": "SkMel28", "experiment": "cell count relative to DMSO control; higher = more viable cells", "conditions": "library dose: standard library concentration; 72 h", "units": {"cell count": "%"}, "values": [{"compound": "Clc1ccc(Nc2nnc(Cc3ccncc3)c3ccccc23)cc1", "note": "[vatalanib] + COc1ccc(COc2ccc(Cc3cnc(N)nc3N)cc2OC)cc1 [GW2580] (first compound 10 µM, partner dose 5 µM)", "cell count": 67.3}, {"compound": "COCC[n+]1c2c(n(Cc3cnccn3)c1C)C(=O)c1ccccc1C2=O", "note": "+ CN(C)S(=O)(=O)c1ccc2c(c1)/C(=C/c1cc3c([nH]1)CCCC3)C(=O)N2 [SU6656] (first compound 0.002 µM, partner dose 2 µM)", "cell count": 41.8}, {"compound": "Clc1ccc(Nc2nnc(Cc3ccncc3)c3ccccc23)cc1", "note": "[vatalanib] + Cn1cc(/C=C2\\C(=O)Nc3cccnc32)c2ccccc21 [GW441756] (first compound 10 µM, partner dose 2 µM)", "cell count": 67.5}]}, {"system": "SkMel2", "experiment": "cell count relative to DMSO control; melanoma cells; higher = more viable cells", "conditions": "library dose: standard library concentration; 72 h", "units": {"cell count": "%"}, "values": [{"compound": "Clc1ccc(Nc2nnc(Cc3ccncc3)c3ccccc23)cc1", "note": "[vatalanib] + O=S(=O)(c1ccccc1)N(CC(F)(F)F)c1ccc(C(O)(C(F)(F)F)C(F)(F)F)cc1 [T0901317] (first compound 10 µM, partner dose 7 µM)", "cell count": 70.7}, {"compound": "Clc1ccc(Nc2nnc(Cc3ccncc3)c3ccccc23)cc1", "note": "[vatalanib] + Oc1cc(-c2nc(-c3ccccc3)[nH]c2-c2ccncc2)ccc1Cl [L779450] (first compound 10 µM, partner dose 1 µM)", "cell count": 23.7}, {"compound": "OCc1c[nH]c2ccccc12", "note": "[Indole-3-carbinol] + O=S(=O)(c1ccccc1)N(CC(F)(F)F)c1ccc(C(O)(C(F)(F)F)C(F)(F)F)cc1 [T0901317] (first compound 4 µM, partner dose 7 µM)", "cell count": 98.3}, {"compound": "Clc1ccc(Nc2nnc(Cc3ccncc3)c3ccccc23)cc1", "note": "[vatalanib] + COC(=O)c1sccc1S(=O)(=O)Nc1ccc(Nc2ccccc2)cc1OC [GSK0660] (first compound 10 µM, partner dose 5 µM)", "cell count": 72.4}, {"compound": "Clc1ccc(Nc2nnc(Cc3ccncc3)c3ccccc23)cc1", "note": "[vatalanib] + CCN(CC)CCCCNc1ncc2cc(-c3cc(OC)cc(OC)c3)c(NC(=O)NC(C)(C)C)nc2n1 [PD173074] (first compound 10 µM, partner dose 0.5 µM)", "cell count": 75.3}, {"compound": "OCc1c[nH]c2ccccc12", "note": "[Indole-3-carbinol] + CC(C)CCN1c2nc(Nc3cc(F)c(O)c(F)c3)ncc2N(C)C(=O)C1C [BID1870] (first compound 4 µM, partner dose 1 µM)", "cell count": 82.6}, {"compound": "OCc1c[nH]c2ccccc12", "note": "[Indole-3-carbinol] + O=C(O)C(=O)Nc1sc2c(c1C(=O)O)CCNC2 [TCS401] (first compound 4 µM, partner dose 8.33333 µM)", "cell count": 98.6}, {"compound": "Clc1ccc(Nc2nnc(Cc3ccncc3)c3ccccc23)cc1", "note": "[vatalanib] + COc1cc(N2CCC(N3CCN(C)CC3)CC2)ccc1Nc1ncc(Cl)c(Nc2ccccc2S(=O)(=O)C(C)C)n1 [NVP-TAE684] (first compound 10 µM, partner dose 0.4 µM)", "cell count": 50.1}, {"compound": "OCc1c[nH]c2ccccc12", "note": "[Indole-3-carbinol] + COc1ccc2c(c1)CCC1C2CCC2(C)C(NCCCCCCN3C(=O)C=CC3=O)CCC12 [U73122] (first compound 4 µM, partner dose 2 µM)", "cell count": 86.4}, {"compound": "OCc1c[nH]c2ccccc12", "note": "[Indole-3-carbinol] + N#Cc1c(O)c2c(-c3ccc(-c4ccccc4O)cc3)csc2[nH]c1=O [A769662] (first compound 4 µM, partner dose 10 µM)", "cell count": 118}, {"compound": "OCc1c[nH]c2ccccc12", "note": "[Indole-3-carbinol] + CCN(CC)CCCCNc1ncc2cc(-c3cc(OC)cc(OC)c3)c(NC(=O)NC(C)(C)C)nc2n1 [PD173074] (first compound 4 µM, partner dose 0.5 µM)", "cell count": 88.1}, {"compound": "OCc1c[nH]c2ccccc12", "note": "[Indole-3-carbinol] + Oc1cc(-c2nc(-c3ccccc3)[nH]c2-c2ccncc2)ccc1Cl [L779450] (first compound 4 µM, partner dose 1 µM)", "cell count": 31.9}, {"compound": "Clc1ccc(Nc2nnc(Cc3ccncc3)c3ccccc23)cc1", "note": "[vatalanib] + O=c1cc(-c2cccc3c2Sc2ccccc2S3)oc(N2CCOCC2)c1 [KU55933] (first compound 10 µM, partner dose 5 µM)", "cell count": 68.4}, {"compound": "OCc1c[nH]c2ccccc12", "note": "[Indole-3-carbinol] + O=C1NC(=O)/C(=C/c2ccc(-c3ccc(F)cc3O)o2)S1 [AS252424] (first compound 4 µM, partner dose 5 µM)", "cell count": 75.9}, {"compound": "OCc1c[nH]c2ccccc12", "note": "[Indole-3-carbinol] + CCc1ccc(CCOc2ccc(CC3SC(=O)NC3=O)cc2)nc1 [pioglitazone] (first compound 4 µM, partner dose 10 µM)", "cell count": 102}, {"compound": "OCc1c[nH]c2ccccc12", "note": "[Indole-3-carbinol] + COc1ccc(-c2ccc3c(N4CCOCC4)nc(N4C[C@@H](C)O[C@@H](C)C4)nc3n2)cc1CO [KU0063794] (first compound 4 µM, partner dose 0.1 µM)", "cell count": 83.5}, {"compound": "OCc1c[nH]c2ccccc12", "note": "[Indole-3-carbinol] + CCCCCCCCCCCC1=C(O)C(=O)C=C(O)C1=O [Embelin] (first compound 4 µM, partner dose 6 µM)", "cell count": 52.5}, {"compound": "Clc1ccc(Nc2nnc(Cc3ccncc3)c3ccccc23)cc1", "note": "[vatalanib] + CCCCCCCCCCCC1=C(O)C(=O)C=C(O)C1=O [Embelin] (first compound 10 µM, partner dose 6 µM)", "cell count": 76.5}, {"compound": "Clc1ccc(Nc2nnc(Cc3ccncc3)c3ccccc23)cc1", "note": "[vatalanib] + c1cc(-c2cnn3cc(-c4ccc(OCCN5CCCCC5)cc4)cnc23)ccn1 [Dorsomorphin] (first compound 10 µM, partner dose 2 µM)", "cell count": 66}, {"compound": "Clc1ccc(Nc2nnc(Cc3ccncc3)c3ccccc23)cc1", "note": "[vatalanib] + CCc1ccc(CCOc2ccc(CC3SC(=O)NC3=O)cc2)nc1 [pioglitazone] (first compound 10 µM, partner dose 10 µM)", "cell count": 75.3}, {"compound": "OCc1c[nH]c2ccccc12", "note": "[Indole-3-carbinol] + COC(=O)c1sccc1S(=O)(=O)Nc1ccc(Nc2ccccc2)cc1OC [GSK0660] (first compound 4 µM, partner dose 5 µM)", "cell count": 106}, {"compound": "Clc1ccc(Nc2nnc(Cc3ccncc3)c3ccccc23)cc1", "note": "[vatalanib] + O=C(Nc1ccccc1)c1cc([N+](=O)[O-])ccc1Cl [GW9662] (first compound 10 µM, partner dose 10 µM)", "cell count": 65.8}, {"compound": "OCc1c[nH]c2ccccc12", "note": "[Indole-3-carbinol] + c1cc(-c2cnn3cc(-c4ccc(OCCN5CCCCC5)cc4)cnc23)ccn1 [Dorsomorphin] (first compound 4 µM, partner dose 2 µM)", "cell count": 104}, {"compound": "OCc1c[nH]c2ccccc12", "note": "[Indole-3-carbinol] + O=c1cc(-c2cccc3c2Sc2ccccc2S3)oc(N2CCOCC2)c1 [KU55933] (first compound 4 µM, partner dose 5 µM)", "cell count": 79.8}, {"compound": "OCc1c[nH]c2ccccc12", "note": "[Indole-3-carbinol] + COc1cc2ncnc(Nc3ccc(Oc4ccccc4)cc3)c2cc1OC [SrcI1] (first compound 4 µM, partner dose 10 µM)", "cell count": 95.7}, {"compound": "OCc1c[nH]c2ccccc12", "note": "[Indole-3-carbinol] + Cn1cc(/C=C2\\C(=O)Nc3cccnc32)c2ccccc21 [GW441756] (first compound 4 µM, partner dose 2 µM)", "cell count": 106}, {"compound": "OCc1c[nH]c2ccccc12", "note": "[Indole-3-carbinol] + Oc1nc(-c2ccc(C(F)(F)F)cc2)nc2c1CSCC2 [XAV939] (first compound 4 µM, partner dose 10 µM)", "cell count": 107}, {"compound": "Clc1ccc(Nc2nnc(Cc3ccncc3)c3ccccc23)cc1", "note": "[vatalanib] + N#Cc1c(O)c2c(-c3ccc(-c4ccccc4O)cc3)csc2[nH]c1=O [A769662] (first compound 10 µM, partner dose 10 µM)", "cell count": 86}, {"compound": "Clc1ccc(Nc2nnc(Cc3ccncc3)c3ccccc23)cc1", "note": "[vatalanib] + O=C(O)C(=O)Nc1sc2c(c1C(=O)O)CCNC2 [TCS401] (first compound 10 µM, partner dose 8.33333 µM)", "cell count": 86.9}, {"compound": "Clc1ccc(Nc2nnc(Cc3ccncc3)c3ccccc23)cc1", "note": "[vatalanib] + COc1ccc(-c2ccc3c(N4CCOCC4)nc(N4C[C@@H](C)O[C@@H](C)C4)nc3n2)cc1CO [KU0063794] (first compound 10 µM, partner dose 0.1 µM)", "cell count": 76.8}, {"compound": "Clc1ccc(Nc2nnc(Cc3ccncc3)c3ccccc23)cc1", "note": "[vatalanib] + CC(C)CCN1c2nc(Nc3cc(F)c(O)c(F)c3)ncc2N(C)C(=O)C1C [BID1870] (first compound 10 µM, partner dose 1 µM)", "cell count": 69.3}, {"compound": "OCc1c[nH]c2ccccc12", "note": "[Indole-3-carbinol] + O=C(Nc1ccccc1)c1cc([N+](=O)[O-])ccc1Cl [GW9662] (first compound 4 µM, partner dose 10 µM)", "cell count": 85.3}, {"compound": "Clc1ccc(Nc2nnc(Cc3ccncc3)c3ccccc23)cc1", "note": "[vatalanib] + Oc1nc(-c2ccc(C(F)(F)F)cc2)nc2c1CSCC2 [XAV939] (first compound 10 µM, partner dose 10 µM)", "cell count": 74}]}]}
